According to patent publication US12473262B2, “Aryl hydrocarbon receptor activators” (Oregon State University, priority 2019, dated 2025):
At least one compound was matched to its structure with a doubt left.

biological target: aryl hydrocarbon receptor (AhR) (Mus musculus (Mouse), UniProt P30561); test: AhR ligand screening: AhRE-luciferase reporter in transfected Hepa1 cells; type: cell-based; settings: fold change of luciferase expression at 1 nM test compound relative to vehicle (0.1% DMSO)
Sequence (P30561 10-805): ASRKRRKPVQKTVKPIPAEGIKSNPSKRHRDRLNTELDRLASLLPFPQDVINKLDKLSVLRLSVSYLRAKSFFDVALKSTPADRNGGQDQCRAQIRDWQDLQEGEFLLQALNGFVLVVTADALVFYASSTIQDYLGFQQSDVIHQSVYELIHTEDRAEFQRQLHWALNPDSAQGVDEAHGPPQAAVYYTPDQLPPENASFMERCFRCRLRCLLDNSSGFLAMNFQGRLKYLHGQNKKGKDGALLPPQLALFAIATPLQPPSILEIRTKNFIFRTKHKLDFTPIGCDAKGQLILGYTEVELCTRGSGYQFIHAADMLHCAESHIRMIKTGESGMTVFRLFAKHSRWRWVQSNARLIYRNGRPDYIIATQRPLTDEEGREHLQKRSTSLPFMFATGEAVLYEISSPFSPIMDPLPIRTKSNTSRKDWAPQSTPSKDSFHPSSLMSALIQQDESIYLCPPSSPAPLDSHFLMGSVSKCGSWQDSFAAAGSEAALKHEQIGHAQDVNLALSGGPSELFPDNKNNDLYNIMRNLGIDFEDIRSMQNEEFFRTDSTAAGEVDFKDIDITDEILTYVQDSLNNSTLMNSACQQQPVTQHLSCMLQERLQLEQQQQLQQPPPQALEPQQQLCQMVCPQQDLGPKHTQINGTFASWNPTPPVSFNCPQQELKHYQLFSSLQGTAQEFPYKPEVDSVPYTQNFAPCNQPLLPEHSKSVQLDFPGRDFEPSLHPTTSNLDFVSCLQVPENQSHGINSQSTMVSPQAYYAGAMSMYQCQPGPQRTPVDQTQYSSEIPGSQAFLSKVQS
Sequence (P53762 whole entry partner): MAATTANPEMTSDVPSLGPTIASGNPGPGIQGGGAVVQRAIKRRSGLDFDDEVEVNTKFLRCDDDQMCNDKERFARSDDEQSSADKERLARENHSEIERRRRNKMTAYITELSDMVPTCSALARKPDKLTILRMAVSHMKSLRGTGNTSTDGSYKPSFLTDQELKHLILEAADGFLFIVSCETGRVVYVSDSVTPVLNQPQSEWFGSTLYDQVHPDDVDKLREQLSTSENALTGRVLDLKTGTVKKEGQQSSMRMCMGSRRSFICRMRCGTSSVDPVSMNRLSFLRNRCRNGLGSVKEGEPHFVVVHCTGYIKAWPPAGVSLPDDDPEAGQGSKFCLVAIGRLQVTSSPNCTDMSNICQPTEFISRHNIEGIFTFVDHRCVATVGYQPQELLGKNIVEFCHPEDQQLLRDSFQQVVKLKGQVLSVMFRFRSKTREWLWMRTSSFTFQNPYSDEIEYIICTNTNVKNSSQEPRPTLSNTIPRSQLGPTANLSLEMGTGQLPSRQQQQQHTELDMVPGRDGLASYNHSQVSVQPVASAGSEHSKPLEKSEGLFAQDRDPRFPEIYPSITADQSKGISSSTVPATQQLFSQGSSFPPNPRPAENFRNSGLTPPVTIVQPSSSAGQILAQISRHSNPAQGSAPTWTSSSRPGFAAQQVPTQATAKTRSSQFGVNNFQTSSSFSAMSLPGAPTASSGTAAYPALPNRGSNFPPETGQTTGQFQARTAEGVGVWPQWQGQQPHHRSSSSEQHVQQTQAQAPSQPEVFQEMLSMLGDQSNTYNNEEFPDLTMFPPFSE
Text: The AhR is a ligand-activated transcription factor that dimerizes with ARNT to regulate gene expression, and genes that are regulated by AhR ligands have AhR response elements (AhRE) in their promotor regions.
Briefly, Hepa1 cells were transfected with a reporter construct consisting of AhRE linked to luciferase. The addition of AhR ligands to the transfected cells induces luciferase production that is directly proportional to the amount of AhR activation. We used this reporter system to identify novel compounds with AhR-activating properties. Transfected Hepa1 cells were plated at a density of 1×10^4 cells/well in 100 μL of cell culture media in 96 well plates and grown overnight. […] Following incubation with the compounds, the media was removed, and cells were harvested with lysis buffer. The lysates were transferred to opaque 96 well plates, where they were assayed well-by-well for luciferase activity by injection of luciferase assay substrate with a 2 sec mixing time and 15 sec integration period on a Tropix TR717 microplate luminometer. Data were expressed as fold induction of luciferase relative to vehicle (0.1% DMSO) treated cells.

SMILES	Fold @ 1 nM [fold]
O=C(c1cccc2ccccc12)n1ccc2ccc(Cl)cc21 [Compound 365, (6-chloro-1H-indol-1-yl)(naphthalen-2-yl)methanone]	1
O=C(c1cccc(Cl)c1Cl)n1c(-c2cccc3ccccc23)nc2cc(Cl)ccc21 [Compound 681]	1
O=C(c1cccc2ccccc12)n1c(-c2cccc3ccccc23)nc2cc(Cl)ccc21 [Compound 704]	1
CN(C)c1ccc(-c2nc3cc(Cl)ccc3n2C(=O)c2ccc(F)c(F)c2)c2ccccc12 [Compound 864]	1
CN(C)c1ccc(-c2nc3ccc(Cl)cc3n2C(=O)c2ccc(F)c(F)c2)c2ccccc12 [Compound 865]	1
COc1ccccc1S(=O)(=O)n1c(-c2cccc3ccccc23)nc2cc(C(=O)N3CCOCC3)ccc21 [Compound 1387]	1

same assay, conditions: fold change of luciferase expression at 100 nM test compound relative to vehicle (0.1% DMSO)

SMILES	Fold @ 100 nM [fold]
O=C(c1cccc2ccccc12)n1ccc2ccc(Cl)cc21 [Compound 365, (6-chloro-1H-indol-1-yl)(naphthalen-2-yl)methanone]	1
O=C(c1cccc(Cl)c1Cl)n1c(-c2cccc3ccccc23)nc2cc(Cl)ccc21 [Compound 681]	25
O=C(c1cccc2ccccc12)n1c(-c2cccc3ccccc23)nc2cc(Cl)ccc21 [Compound 704]	34
CN(C)c1ccc(-c2nc3cc(Cl)ccc3n2C(=O)c2ccc(F)c(F)c2)c2ccccc12 [Compound 864]	2
CN(C)c1ccc(-c2nc3ccc(Cl)cc3n2C(=O)c2ccc(F)c(F)c2)c2ccccc12 [Compound 865]	7
COc1ccccc1S(=O)(=O)n1c(-c2cccc3ccccc23)nc2cc(C(=O)N3CCOCC3)ccc21 [Compound 1387]	1

same assay, conditions: fold change of luciferase expression at 10 uM test compound relative to vehicle (0.1% DMSO)

SMILES	Fold @ 10 uM [fold]
O=C(c1cccc2ccccc12)n1ccc2ccc(Cl)cc21 [Compound 365, (6-chloro-1H-indol-1-yl)(naphthalen-2-yl)methanone]	6
O=C(c1cccc(Cl)c1Cl)n1c(-c2cccc3ccccc23)nc2cc(Cl)ccc21 [Compound 681]	24
O=C(c1cccc2ccccc12)n1c(-c2cccc3ccccc23)nc2cc(Cl)ccc21 [Compound 704]	17
CN(C)c1ccc(-c2nc3cc(Cl)ccc3n2C(=O)c2ccc(F)c(F)c2)c2ccccc12 [Compound 864]	47
CN(C)c1ccc(-c2nc3ccc(Cl)cc3n2C(=O)c2ccc(F)c(F)c2)c2ccccc12 [Compound 865]	47
COc1ccccc1S(=O)(=O)n1c(-c2cccc3ccccc23)nc2cc(C(=O)N3CCOCC3)ccc21 [Compound 1387]	2

same assay, conditions: luciferase expression at 100 nM test compound relative to 100 nM benchmark compound 11-cl-BBQ

SMILES	Fold relative to benchmark @ 100 nM [fold]
O=C(c1cccc2ccccc12)n1ccc2ccc(Cl)cc21 [Compound 365, (6-chloro-1H-indol-1-yl)(naphthalen-2-yl)methanone]	0.03
O=C(c1cccc(Cl)c1Cl)n1c(-c2cccc3ccccc23)nc2cc(Cl)ccc21 [Compound 681]	0.96
O=C(c1cccc2ccccc12)n1c(-c2cccc3ccccc23)nc2cc(Cl)ccc21 [Compound 704]	1.31
CN(C)c1ccc(-c2nc3cc(Cl)ccc3n2C(=O)c2ccc(F)c(F)c2)c2ccccc12 [Compound 864]	0.07
CN(C)c1ccc(-c2nc3ccc(Cl)cc3n2C(=O)c2ccc(F)c(F)c2)c2ccccc12 [Compound 865]	0.24
COc1ccccc1S(=O)(=O)n1c(-c2cccc3ccccc23)nc2cc(C(=O)N3CCOCC3)ccc21 [Compound 1387]	0.03
